# The list shows a part of the results.
# How the values were obtained:
# Assay in all cases: glycan array binding signal (z-score within array); higher = stronger binding
# Settings in all cases: glycan notation: IUPAC condensed, linker removed
# [1] = biological target: Neu5Ac(a2-3)Gal(b1-4)[Fuc(a1-3)]GlcNAc(b1-3)Gal(b1-4)[Fuc(a1-3)]GlcNAc(b1-3)Gal(b1-4)[Fuc(a1-3)]GlcNAc
# How it was run: (§1)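 Glycan array binding is given as a within-array Z-score, which can be read as non-binding when negative. The arrays, 3228 of them, came from the Consortium for Functional Glycomics database and were retained only where the protein sequence was available. Z-scores were averaged across arrays of the same protein sequence at different concentrations or buffers and across linkers.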
# [2] = biological target: Neu5Ac(a2-3)Gal(b1-4)[Fuc(a1-3)]GlcNAc(b1-3)GalNAc
# How it was run: as §1
# [3] = biological target: Neu5Ac(a2-3)Gal(b1-4)[Fuc(a1-3)]GlcNAc(b1-6)[Gal(b1-3)]GalNAc
# How it was run: as §1
# [4] = biological target: Neu5Ac(a2-3)Gal(b1-4)[Fuc(a1-3)]GlcNAc(b1-6)[Neu5Ac(a2-3)Gal(b1-3)]GalNAc
# How it was run: as §1
# [5] = biological target: Neu5Ac(a2-3)Gal(b1-4)[Fuc(a1-3)]GlcNAc6S
# How it was run: as §1
# [6] = biological target: Neu5Ac(a2-3)Gal6S(b1-4)GlcNAc
# How it was run: as §1
# [7] = biological target: Neu5Ac(a2-3)Gal6S(b1-4)[Fuc(a1-3)]GlcNAc
# How it was run: as §1
# Neu5Ac(a2-3)GalNAc = biological target: Neu5Ac(a2-3)GalNAc
# How it was run: as §1
# [8] = biological target: Neu5Ac(a2-3)GalNAc(b1-4)GlcNAc
# How it was run: as §1
# [9] = biological target: Neu5Ac(a2-3)[GalNAc(b1-4)]Gal(b1-4)Glc
# How it was run: as §1
# [10] = biological target: Neu5Ac(a2-3)[GalNAc(b1-4)]Gal(b1-4)GlcNAc
# How it was run: as §1
# [11] = biological target: Neu5Ac(a2-3)[GalNAc(b1-4)]Gal(b1-4)GlcNAc(b1-3)GalNAc
# How it was run: as §1
# [12] = biological target: Neu5Ac(a2-3)[Neu5Ac(a2-6)]GalNAc
# How it was run: as §1
# Neu5Ac(a2-6)Gal = biological target: Neu5Ac(a2-6)Gal
# How it was run: as §1
# [13] = biological target: Neu5Ac(a2-6)Gal(b1-3)GlcNAc(b1-3)[Gal(b1-4)GlcNAc(b1-6)]Gal(b1-4)Glc
# How it was run: as §1
# Neu5Ac(a2-6)Gal(b1-4)Glc = biological target: Neu5Ac(a2-6)Gal(b1-4)Glc
# How it was run: as §1
# [14] = biological target: Neu5Ac(a2-6)Gal(b1-4)GlcNAc
# How it was run: as §1
# [15] = biological target: Neu5Ac(a2-6)Gal(b1-4)GlcNAc(b1-2)Man
# How it was run: as §1
# [16] = biological target: Neu5Ac(a2-6)Gal(b1-4)GlcNAc(b1-2)Man(a1-3)Man(b1-4)GlcNAc(b1-4)GlcNAc
# How it was run: as §1
# [17] = biological target: Neu5Ac(a2-6)Gal(b1-4)GlcNAc(b1-2)Man(a1-3)[Gal(b1-4)GlcNAc(b1-2)Man(a1-6)]Man(b1-4)GlcNAc(b1-4)GlcNAc
# How it was run: as §1
# [18] = biological target: Neu5Ac(a2-6)Gal(b1-4)GlcNAc(b1-2)Man(a1-3)[GlcNAc(b1-2)Man(a1-6)]Man(b1-4)GlcNAc(b1-4)GlcNAc
# How it was run: as §1
binder,measurement,setting,value
PpFlo2 (Pichia pastoris) (protein) MGSSHHHHHHSSGLVPRGSHMDDSGNGDNSDTAYGCDITTNAVDGFDATIYQYNANDLRLIRDPTFMSTGYLGRNVLNKISGVTVPGFNIWNPSSRTATVYGVKNVNYYNMVLELKGYFKADVSGDYKLTLSHIDDSSMLFFGKETAFKCCDAGSIPLNEAPTDYSLFTIKPSNQVNSEVISATQYLEAGKYYPVRIVFVNALERARFDFKLTIPSGAVLDDFQNYIYQFGDLDENSCHE,glycan array binding signal (z-score),[1],-0.274
same,glycan array binding signal (z-score),[2],-0.285
same,glycan array binding signal (z-score),[3],-0.293
same,glycan array binding signal (z-score),[4],-0.266
same,glycan array binding signal (z-score),[5],-0.301
same,glycan array binding signal (z-score),[6],-0.302
same,glycan array binding signal (z-score),[7],-0.297
same,glycan array binding signal (z-score),Neu5Ac(a2-3)GalNAc,-0.298
same,glycan array binding signal (z-score),[8],-0.302
same,glycan array binding signal (z-score),[9],-0.298
same,glycan array binding signal (z-score),[10],-0.292
same,glycan array binding signal (z-score),[11],-0.29
same,glycan array binding signal (z-score),[12],-0.301
same,glycan array binding signal (z-score),Neu5Ac(a2-6)Gal,-0.302
same,glycan array binding signal (z-score),[13],-0.289
same,glycan array binding signal (z-score),Neu5Ac(a2-6)Gal(b1-4)Glc,-0.298
same,glycan array binding signal (z-score),[14],-0.296
same,glycan array binding signal (z-score),[15],-0.261
same,glycan array binding signal (z-score),[16],-0.293
same,glycan array binding signal (z-score),[17],-0.281
same,glycan array binding signal (z-score),[18],0.745

# Reference: the supplement of paper PMC8728848
